Results published in publication PMC4336329 (PLoS ONE, 2015).
Out of some 310,000 compounds screened, about 2,200 (0.71%) showed an effect of 50% or more. The effect is printed as a negative number. Some of the results follow.

The molecules below were run against human ether-à-go-go-related gene (hERG) potassium channel (human, UniProt Q12809) (assay: primary screen, population patch clamp on CHO cells stably expressing hERG).
Sequence of human ether-à-go-go-related gene (hERG) potassium channel (Q12809 whole entry, looked up): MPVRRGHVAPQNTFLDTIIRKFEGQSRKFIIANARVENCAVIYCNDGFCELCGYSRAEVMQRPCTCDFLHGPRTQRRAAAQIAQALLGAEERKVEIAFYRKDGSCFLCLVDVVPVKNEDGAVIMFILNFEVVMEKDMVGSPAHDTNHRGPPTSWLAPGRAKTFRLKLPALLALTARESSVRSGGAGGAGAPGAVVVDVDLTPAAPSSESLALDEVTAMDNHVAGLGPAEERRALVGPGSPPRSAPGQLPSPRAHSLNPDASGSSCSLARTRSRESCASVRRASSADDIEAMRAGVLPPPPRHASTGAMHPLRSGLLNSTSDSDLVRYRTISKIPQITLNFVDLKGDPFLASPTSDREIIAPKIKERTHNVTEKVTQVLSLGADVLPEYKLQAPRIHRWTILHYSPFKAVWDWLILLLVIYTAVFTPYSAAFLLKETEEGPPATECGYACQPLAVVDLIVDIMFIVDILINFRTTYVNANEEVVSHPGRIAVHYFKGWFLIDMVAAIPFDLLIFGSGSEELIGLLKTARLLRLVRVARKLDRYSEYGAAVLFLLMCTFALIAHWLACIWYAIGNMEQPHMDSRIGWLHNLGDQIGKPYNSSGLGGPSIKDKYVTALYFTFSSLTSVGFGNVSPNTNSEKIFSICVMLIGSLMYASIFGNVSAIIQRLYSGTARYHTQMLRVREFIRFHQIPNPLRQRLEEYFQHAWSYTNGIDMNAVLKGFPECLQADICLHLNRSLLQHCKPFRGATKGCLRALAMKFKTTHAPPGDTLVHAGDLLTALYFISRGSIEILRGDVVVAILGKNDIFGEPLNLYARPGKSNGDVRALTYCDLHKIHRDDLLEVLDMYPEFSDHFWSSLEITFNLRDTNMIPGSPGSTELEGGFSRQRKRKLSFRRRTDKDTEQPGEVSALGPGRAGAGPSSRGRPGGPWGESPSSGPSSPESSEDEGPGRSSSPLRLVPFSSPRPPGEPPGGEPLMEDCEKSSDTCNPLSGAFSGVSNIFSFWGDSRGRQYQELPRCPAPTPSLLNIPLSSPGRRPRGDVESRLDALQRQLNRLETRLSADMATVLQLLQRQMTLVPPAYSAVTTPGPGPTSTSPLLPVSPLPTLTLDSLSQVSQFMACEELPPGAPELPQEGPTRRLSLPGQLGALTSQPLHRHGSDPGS

| SMILES | hERG current change (%, negative = inhibition) at 1uM |
| --- | --- |
| Cc1ccc(S(=O)(=O)Cn2nnnc2C(CC(C)C)N2CCN(C)CC2)cc1.Cl (stereo not drawn) | 8.74% |
| N#Cc1ccc(-n2nccc2-c2cnc3n(c2=O)CCS3)cc1 | 14.8% |
| Cn1cc(C(=O)N2CCc3ccccc3C2)c(=O)c2cc(S(=O)(=O)N3CCCCC3)ccc21 | -0.811% |
| O=C(O)C(Cc1c[nH]c2ccccc12)N1C(=O)C2C3c4ccccc4C(c4ccccc43)[C@@H]2C1=O (stereo partly drawn) | 5.72% |
| COc1ccc(-n2c(C)ccc2C)c([N+](=O)[O-])c1 | 9.16% |
| CSc1cc(C)n(-c2ccccc2C)c(=S)c1C(C)=O | 16.8% |
| COc1ccc(C)cc1Nc1nc(C)nc2sc(C)cc12 | 8.89% |
| O=C(c1ccc(Oc2ccc(Cl)cc2)c([N+](=O)[O-])c1)N1CCCC1 | 10.3% |
| O=C(Nc1nc2n(n1)C(c1ccccc1)CC(c1ccc(Cl)cc1)N2)c1ccco1 (stereo not drawn) | 5.27% |
| COc1cc([C@@H]2Oc3cc(C4Oc5cc(O)cc(O)c5C(=O)[C@H]4O)ccc3O[C@H]2CO)ccc1O (stereo partly drawn) | 5.38% |
| Cc1ccsc1C(=O)NCc1ccc(Cl)cc1 | 14.5% |
| CCCCn1c(=O)c(Cc2ccccc2)c(O)c2ccccc21 | 5.71% |
| O=S(=O)(Nc1cccc(-c2ccc(N3CCCCCC3)nn2)c1)c1ccccc1Cl | 18.1% |
| CCC(C)NC(=O)Cn1nc(Cc2ccncc2)c2ccccc2c1=O (stereo not drawn) | 10.1% |
| Cc1cccc(NS(=O)(=O)c2ccc(C3CCCCC3)cc2)n1 | 12.3% |
| O=C(CSc1nnc(-c2ccncc2)n1Cc1ccco1)Nc1cccc(O)c1 | 5.64% |
| O=C(NCCCN1CCC(Cc2ccccc2)CC1)C1CC(=O)N(C2CCCC2)C1 (stereo not drawn) | 0.521% |
| CCC1=NN(C(=O)CCc2ccccc2)C(O)(C(F)(F)F)C1 (stereo not drawn) | 10.9% |
| Cc1ccccc1-c1nc(C(=O)NCC2CCCO2)cc2c1[nH]c1ccccc12 (stereo not drawn) | 6.42% |
| CCOc1ccc(OCC)c(NC(=O)C2CCN(S(=O)(=O)c3ccc4c(c3)CC(C)N4C(C)=O)CC2)c1 (stereo not drawn) | -19.3% |
| CC(=O)N1CC=C2C(C#N)=C(N)C(C#N)(C#N)[C@H](c3ccoc3)[C@H]2C1 | -11.6% |
| O=C(Cc1cccs1)Nc1ccccc1 | 12.9% |

| SMILES | hERG current change (%, negative = inhibition) at 1uM |
| --- | --- |
| CCN(C(=O)c1cccs1)c1nnc(-c2ccncc2)s1 | 5.82% |
| NCCc1nnc(SCC(=O)Nc2cccc(Cl)c2)o1 | 20.6% |
| CCC/C=C1/CCCOC(C(=O)NCCN2CCOCC2)(C(F)(F)F)C1 (stereo not drawn) | 13.2% |
| CCCN(CC1CC1)C(=O)COC(=O)c1ccc(CNS(=O)(=O)c2ccc(F)c(Cl)c2)cc1 | 5.17% |
| COc1ccc(S(=O)(=O)N2CCC(C(=O)Nc3ccc(OC)c(OC)c3)CC2)cc1C | 11.8% |
| c1ccc2c(c1)CCCN2Cc1nnc2n1CCCCC2 | 12.5% |
| CCC(=O)Nc1ccc(C(=O)CSc2nnc(-c3ccc(NS(=O)(=O)CC)cc3)o2)cc1OC | 10.1% |
| CCCS(=O)(=O)N1CCC(C(=O)NCCCN(CC)c2cccc(C)c2)CC1 | -0.428% |
| NCCCC(=O)O | 12% |
| CC1(C(=O)OCC(=O)Nc2ccc3ccccc3c2)CC1(Cl)Cl.CN(C)C=O (stereo not drawn) | 11.2% |
| CC1CCN(C(=O)COC(=O)c2n[nH]c3ccccc23)CC1 | 6.97% |
| CCN(c1ccccc1)S(=O)(=O)c1ccc(C(=O)Nc2ccncc2)cc1 | -0.477% |
| Cc1cccc(NC(=O)CSCC(=O)N(C)Cc2c(F)cccc2Cl)c1 | -0.777% |
| CCn1c(NCc2c[nH]c3ccccc23)nc2ccccc21 | 7.83% |
| O=C(CSCc1cc(=O)n2ccsc2n1)Nc1ccc(F)cc1 | 10.1% |
| Cc1ccc(Cn2c(SC(C)C(N)=O)nc3ccccc3c2=O)cc1 (stereo not drawn) | 11.3% |
| COc1cc2c(c(OCC(=O)NC(C)C)c1)C(=O)O[C@@H](C)CCCC(=O)CCCCC2 | 7.84% |
| COCc1ccc(CN2CCC(n3nccc3NC(=O)C(OC)c3ccccc3)CC2)o1 (stereo not drawn) | 3.15% |
| COc1ccccc1OCC(=O)O | 13.3% |
| NC(=O)CCN1CCC(c2nc3ccccc3s2)CC1 | -16.1% |
| Clc1ccc2c(c1)-c1nnc(Br)n1-c1ccccc1S2 | 0.703% |
| CC1Cc2cc(/C(O)=C3/C(=O)C(=O)N(CCCn4ccnc4)C3c3cccc([N+](=O)[O-])c3)ccc2O1 (stereo not drawn) | 15.1% |

| SMILES | hERG current change (%, negative = inhibition) at 1uM |
| --- | --- |
| Cc1nn(C)c(C(=O)NNC(=S)NCc2ccco2)c1Br | 21% |
| Cc1ccc(S(=O)(=O)NCCC(=O)NCC(c2ccc(F)cc2)N2CCOCC2)cc1 (stereo not drawn) | 5.76% |
| Cc1ccc(SCC(=O)OC(C)C(=O)NCc2ccccc2)cc1C (stereo not drawn) | -0.37% |
| Cc1ccc(NC(=O)CN(C)c2ccc(S(=O)(=O)N3CCN(C)CC3)cn2)cc1 | 1.76% |
| CC(=O)c1cccc(NC(=O)c2noc3c2CCc2ccccc2-3)c1 | 8.25% |
| O=C(CN1C(=O)NC2(CCCCCC2)C1=O)N1CCC(Cc2ccccc2)CC1 | 2.62% |
| CC(C)(C)C1CCc2nc(NC(=O)Cc3cn4ccsc4n3)sc2C1 (stereo not drawn) | -4.91% |
| CCn1c(C)nc2cc(C(=O)NNC(=O)c3ccc(C)cc3)ccc21 | 6.07% |
| Cc1nc2ccc(-c3nc4ccccc4o3)cc2[nH]1 | -0.0617% |
| CC1CCCC(NC(=O)CN2C(=O)COc3ccccc32)C1C (stereo not drawn) | 19.4% |
| COc1cccc(C(=O)N/N=C(\CC(C)C)c2ccccc2)c1 | 4.05% |
| Cc1nn(-c2ccccc2)c(Cl)c1/C=C1\SC(=S)N(C)C1=O | 21.4% |
| CC(C)(C)c1ccc(C(=O)NNC(=O)Cc2cccc3ccccc23)cc1 | 11.8% |
| O=C(CN1C(=O)NC2(CCCC2)C1=O)OCc1ccc(Cl)c(Cl)c1 | 1.91% |
| O=C(CCSCCc1ccccn1)Nc1ccc(Br)cc1F | 5.3% |
| O=C(NC1CCCC1)C1CCN(C(=O)c2ccc(-c3ccccc3)cc2)CC1 | -3.8% |
| COc1ccccc1N1CCN(C(=O)c2cc3n(n2)C(C(F)(F)F)CC(c2ccco2)N3)CC1 (stereo not drawn) | 7.96% |
| O=C1C2CCCCN2C(=O)N1CCCCN1CCN(c2cccc(Cl)c2)CC1 (stereo not drawn) | -27.8% |
| COc1ccc2[nH]c(C(=O)N/N=C/c3ccc(O)cc3O)cc2c1 | 15.5% |
| Clc1ccc(Nc2ncnc3c2cnn3-c2ccccc2)cc1 | 0.0786% |
| CC12CCC(=O)N1C(C(=O)Nc1nc3ccc(F)cc3s1)CS2 (stereo not drawn) | -5.23% |
| CC(Sc1nc2ccccc2n1C)C(=O)Nc1ccc(N2CCOCC2)cc1 (stereo not drawn) | 6.2% |

| SMILES | hERG current change (%, negative = inhibition) at 1uM |
| --- | --- |
| Cc1ccccc1/C=C/C12NC(=O)CN1c1ccccc1C2(C)C (stereo not drawn) | 11.9% |
| O=C(N/N=C\c1ccc(Cl)cc1)C1=NOC2COC3(CCN(c4ccc([N+](=O)[O-])cc4)CC3)OCC12 (stereo not drawn) | 4.03% |
| CCCn1c(N)c(N(CCOC)C(=O)c2cc(C)cc(C)c2)c(=O)[nH]c1=O | 10.1% |
| COc1ccc(-c2nnc(SCC(=O)NNC(=O)c3ccc(C)cc3)o2)cc1 | -5.49% |
| COc1ccc(OCCCC(=O)Nc2cc(S(=O)(=O)N3CCCCC3)ccc2C)cc1 | 3.93% |
| NC(=O)CSc1nc2ccccc2nc1SCC(N)=O | 8.87% |
| Cc1ccc(OCCC(=O)Nc2ccc3c(c2)OCCCO3)cc1 | 6% |
| Cc1ccc(S(=O)(=O)N(C)C)cc1NC(=O)COC(=O)/C(=C/c1ccc(F)cc1)c1cccs1 | 13.6% |
| COc1ccccc1NC(=S)NC(C)=O | 14.4% |
| CC(C)C1CC(CCNCc2ccc3c(c2)OCO3)(c2ccccc2)CCO1.Cl (stereo not drawn) | -14.5% |
| COc1ccccc1N1CCN(C(=O)COc2ccc(S(=O)(=O)NC(C)C)cc2)CC1 | 16.6% |
| COc1ccc(NC(=O)c2oc3ccccc3c2C)c(OC)c1 | 4.15% |
| COC(=O)Cn1c(CCS(=O)(=O)c2ccc(C)cc2)nc2ccccc21 | 2.48% |
| O=C(N/N=C\c1ccc(Cl)cc1)c1sccc1-n1cccc1 | -1.36% |
| COc1ccc(O)c(-c2c(-c3ccc(Cl)cc3)n[nH]c2C)c1 | 9.84% |
| COc1ccccc1NC(=O)COc1ccc(CO)cc1Cl | 6.36% |
| CSc1ccccc1OCc1cc(C(=O)NCCC2CCCCO2)no1 (stereo not drawn) | 7.41% |
| CS(=O)(=O)c1nc(-c2ccc(Br)cc2)n[nH]1 | 17.9% |
| CCCCn1c(N)c(N(CCC(C)C)C(=O)CSc2nnc3ccccn23)c(=O)[nH]c1=O | 12.7% |
| COc1cc(Cl)ccc1OCc1cc(C(=O)N(C)Cc2cccc3cnccc23)no1 | 3.83% |
| O=C(Cn1nnc2ccccc21)OCC(=O)c1ccc(Cl)cc1 | 2.82% |
